Data from the supplement of paper PMC3334620.
Whole data set: some 33,000 sequences, median “E-score (-0.5 to 0.5)” near -0.054, cut for the highest 2% near 0.35. The list shows a part of the results.

The sequences below were run against T1, Stb5 (UniProt P38699) (assay: PBM E-score (8-mer binding enrichment) (E-score (-0.5 to 0.5)); higher = stronger / more preferred TF binding; most listed sequences are background and not binding sites). Conditions: protein concentration: 200 nM; construct: GST-full length.
T1 sequence: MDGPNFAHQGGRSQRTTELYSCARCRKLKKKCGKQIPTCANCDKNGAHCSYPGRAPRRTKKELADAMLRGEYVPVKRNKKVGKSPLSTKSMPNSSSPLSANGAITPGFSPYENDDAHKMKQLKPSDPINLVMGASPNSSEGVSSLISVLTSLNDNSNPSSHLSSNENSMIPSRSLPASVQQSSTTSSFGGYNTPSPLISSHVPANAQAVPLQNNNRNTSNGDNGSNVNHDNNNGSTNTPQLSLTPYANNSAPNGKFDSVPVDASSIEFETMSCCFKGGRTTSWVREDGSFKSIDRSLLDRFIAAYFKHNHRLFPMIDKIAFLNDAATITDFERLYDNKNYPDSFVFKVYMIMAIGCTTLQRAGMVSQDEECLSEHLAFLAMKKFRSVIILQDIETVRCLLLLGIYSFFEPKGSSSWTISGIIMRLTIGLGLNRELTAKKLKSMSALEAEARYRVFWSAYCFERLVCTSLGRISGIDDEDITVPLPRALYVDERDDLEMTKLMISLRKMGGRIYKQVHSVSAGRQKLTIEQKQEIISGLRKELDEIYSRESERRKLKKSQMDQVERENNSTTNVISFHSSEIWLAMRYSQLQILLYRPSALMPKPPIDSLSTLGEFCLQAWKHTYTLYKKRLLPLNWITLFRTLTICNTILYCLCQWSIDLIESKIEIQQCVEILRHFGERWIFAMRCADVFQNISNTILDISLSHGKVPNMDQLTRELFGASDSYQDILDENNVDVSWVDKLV
Protocol: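 Universal 'all 10-mer' protein binding microarrays (Agilent AMADID 015681) probed with GST-tagged S. cerevisiae TFs (full-length or DBD) made by in vitro transcription/translation (PURExpress), about 100-200 nM. Bound TF was detected with fluorescent anti-GST. Each ungapped 8-mer (which stands for itself and its reverse complement) is scored by the PBM enrichment score (E-score), a modified Wilcoxon-Mann-Whitney statistic from -0.5 to +0.5, computed with the Universal PBM Analysis Suite. Scale: above 0.35 generally sequence-specific binding.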

Row | Sequence | PBM E-score
1 | TAGTAATA | -0.146
2 | AGATGGGC | -0.0693
3 | AAGCTTAT | -0.0352
4 | AAGAGACT | -0.192
5 | CCATTCGG | 0.143
6 | AACAACAC | -0.238
7 | CTCGGTAA | 0.068
8 | AGATATCT | -0.274
9 | ACCGATAT | 0.232
10 | CGAAACCA | -0.0365
11 | CATCAATA | -0.165
12 | AACATTAC | -0.0746
13 | ACAAACGC | 0.15
14 | CGAACCCG | 0.103
15 | CAATAGGA | -0.146
16 | ACGCCGAA | 0.264
17 | ACCACTTA | -0.0547
18 | GCAGGAGA | -0.0364
19 | CAGGTCGG | 0.274
20 | CTTATTGA | -0.0347
21 | GACCCAGC | -0.205
22 | CTATCCGC | 0.0573

Row | Sequence | PBM E-score
23 | ATACTACG | -0.0545
24 | AGCGGGCG | 0.261
25 | CAGCCATC | -0.207
26 | GCGTCTAC | -0.0877
27 | ACCCGTAT | 0.0512
28 | AGATTCTA | -0.0584
29 | AATTAAAC | 0.0202
30 | CACGAATA | -0.203
31 | CAAAGTAC | -0.189
32 | GCAAGGAA | -0.00519
33 | AGGCTTAG | -0.193
34 | ATCTTTAG | 0.00097
35 | CGATGACC | 0.0547
36 | CGTCCTGC | -0.00146
37 | ACAGCGAT | 0.15
38 | AGTCGCGC | 0.0306
39 | TATACGCA | -0.0348
40 | CCACTCGG | 0.00217
41 | CCGATGAC | 0.301
42 | ATTCCGCC | 0.233
43 | CAAACAGA | -0.149
44 | CGGCTCCA | 0.215

Row | Sequence | PBM E-score
45 | ACCAATTC | -0.0154
46 | CATGTTGC | -0.0278
47 | CCAGTGCG | -0.0766
48 | ATCTAGGA | -0.0132
49 | AATAAGGT | 0.19
50 | ATGATAAG | -0.0226
51 | ACAAGCGT | -0.197
52 | AATATCGA | -0.0931
53 | GTTAAGTA | -0.216
54 | CGCATCCC | 0.0796
55 | CTCATATA | 0.0112
56 | GATCCGGC | 0.255
57 | AAACTATT | 0.013
58 | ACGGGCCT | 0.376
59 | CAGCCGAA | -0.172
60 | CACGGGAG | -0.0718
61 | CGCCGGTA | 0.335
62 | CGCGAAAC | 0.0812
63 | AGCGCAGA | -0.0263
64 | CGTACGTA | -0.15
65 | GCATTCCA | -0.0874
66 | AAAACTAA | -0.32

Row | Sequence | PBM E-score
67 | ATGGTGAA | 0.0462
68 | CTGATGCA | -0.267
69 | ATGAATCC | 0.0336
70 | ACGGCGGG | 0.286
71 | CGGGGCGC | 0.251
72 | GGAGCAAA | 0.123
73 | TTCAGAAA | -0.00912
74 | CAAGCCTC | -0.176
75 | CCAAACCC | 0.106
76 | AACAGGCC | 0.0168
77 | ATGTAATG | 0.0198
78 | TAATTGGA | 0.029
79 | AAGTGATA | -0.201
80 | AAGTTTCG | 0.0014
81 | ACCTCAAT | -0.271
82 | CGAATATA | -0.0142
83 | CGATCAGA | -0.0796
84 | AGTACTTG | -0.0215
85 | CGGGCACA | 0.281
86 | GCCGATAA | 0.313
